{"source": "patent US7414110B2", "about": "“Human calcium channel compositions and methods” (Merck & Co., Inc., priority 1990, dated 2008)", "biological_target": "T1, human neuronal calcium channel α1D subunit (Homo sapiens, UniProt Q01668, S1346F/Y1433H)", "T1 construct": "Portions of these partial cDNA clones were ligated to generate a full-length α1D cDNA in a eukaryotic expression vector; expressed in transfected cells; host or cells: HEK 293 cells, transient", "T1 sequence (Q01668 whole entry S1346F/Y1433H)": "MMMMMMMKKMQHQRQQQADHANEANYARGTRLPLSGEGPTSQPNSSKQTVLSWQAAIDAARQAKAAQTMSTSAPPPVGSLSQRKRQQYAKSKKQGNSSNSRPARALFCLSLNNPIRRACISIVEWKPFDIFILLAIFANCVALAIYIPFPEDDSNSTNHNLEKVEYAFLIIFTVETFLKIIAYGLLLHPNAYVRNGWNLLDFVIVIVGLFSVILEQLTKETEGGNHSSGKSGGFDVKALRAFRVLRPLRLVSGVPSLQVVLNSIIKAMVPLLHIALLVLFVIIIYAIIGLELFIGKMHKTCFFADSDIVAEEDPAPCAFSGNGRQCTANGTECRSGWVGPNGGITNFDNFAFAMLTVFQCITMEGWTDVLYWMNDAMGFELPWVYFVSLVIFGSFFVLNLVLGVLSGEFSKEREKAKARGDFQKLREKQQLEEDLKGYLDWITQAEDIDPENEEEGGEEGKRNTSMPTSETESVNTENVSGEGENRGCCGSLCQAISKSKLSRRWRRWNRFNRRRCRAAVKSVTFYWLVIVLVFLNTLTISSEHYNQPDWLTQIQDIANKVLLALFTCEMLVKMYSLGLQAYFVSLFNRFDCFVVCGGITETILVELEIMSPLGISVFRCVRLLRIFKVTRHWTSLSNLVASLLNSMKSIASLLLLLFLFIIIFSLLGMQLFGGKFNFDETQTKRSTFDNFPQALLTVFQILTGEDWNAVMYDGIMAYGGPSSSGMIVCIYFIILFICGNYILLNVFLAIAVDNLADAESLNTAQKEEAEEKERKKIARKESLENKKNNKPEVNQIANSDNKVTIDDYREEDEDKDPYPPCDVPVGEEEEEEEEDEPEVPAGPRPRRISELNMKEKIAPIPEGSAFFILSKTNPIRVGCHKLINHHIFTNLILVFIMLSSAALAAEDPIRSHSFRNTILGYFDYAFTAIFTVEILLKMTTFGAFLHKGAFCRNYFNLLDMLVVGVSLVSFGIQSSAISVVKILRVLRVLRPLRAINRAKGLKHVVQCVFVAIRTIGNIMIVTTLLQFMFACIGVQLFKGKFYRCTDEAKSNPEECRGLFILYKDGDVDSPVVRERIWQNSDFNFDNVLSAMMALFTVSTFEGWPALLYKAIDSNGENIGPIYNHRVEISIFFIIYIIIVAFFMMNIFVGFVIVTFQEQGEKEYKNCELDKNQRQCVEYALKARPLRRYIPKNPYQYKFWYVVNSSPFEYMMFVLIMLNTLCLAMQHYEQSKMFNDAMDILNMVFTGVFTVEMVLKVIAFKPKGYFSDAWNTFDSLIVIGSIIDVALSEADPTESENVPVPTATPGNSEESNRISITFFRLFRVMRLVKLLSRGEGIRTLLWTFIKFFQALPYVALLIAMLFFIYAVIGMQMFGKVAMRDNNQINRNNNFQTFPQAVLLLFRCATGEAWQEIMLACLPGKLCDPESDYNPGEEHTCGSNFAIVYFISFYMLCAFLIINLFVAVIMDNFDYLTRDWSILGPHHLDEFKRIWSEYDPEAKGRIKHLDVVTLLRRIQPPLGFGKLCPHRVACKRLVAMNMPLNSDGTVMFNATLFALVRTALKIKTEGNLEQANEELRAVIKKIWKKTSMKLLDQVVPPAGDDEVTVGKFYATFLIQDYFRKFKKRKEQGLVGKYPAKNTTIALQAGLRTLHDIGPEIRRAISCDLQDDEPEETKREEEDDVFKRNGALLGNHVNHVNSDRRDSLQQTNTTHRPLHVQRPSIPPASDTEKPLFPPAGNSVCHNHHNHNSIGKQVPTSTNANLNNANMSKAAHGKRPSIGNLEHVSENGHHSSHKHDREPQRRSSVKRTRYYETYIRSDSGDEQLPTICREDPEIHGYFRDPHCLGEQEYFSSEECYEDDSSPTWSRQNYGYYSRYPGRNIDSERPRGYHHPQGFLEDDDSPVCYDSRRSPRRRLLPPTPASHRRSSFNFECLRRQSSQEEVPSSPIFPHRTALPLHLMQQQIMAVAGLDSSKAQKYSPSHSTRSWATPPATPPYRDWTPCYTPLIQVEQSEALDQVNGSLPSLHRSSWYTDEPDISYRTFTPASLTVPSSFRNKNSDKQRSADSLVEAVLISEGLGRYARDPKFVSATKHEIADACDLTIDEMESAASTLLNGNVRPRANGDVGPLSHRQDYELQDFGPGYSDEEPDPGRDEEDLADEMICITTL", "description": "Pflugers Arch. 391:85-100]."}
{"smiles": "COC(=O)C1=C(C)NC(C)=C([N+](=O)[O-])C1c1ccccc1C(F)(F)F", "note": "(centres unmarked) [Bay K 8644]", "values": [{"measurement": "amplification of 30 pA inward barium current", "value": 2, "unit": "fold"}, {"measurement": "tail currents", "value": "small tail currents were detected"}]}
